# In the supplement of paper PMC3334620:
# Over roughly 33,000 sequences, “E-score (-0.5 to 0.5)” has its median near -0.012; the highest 2% begin near 0.29. This is one part of the list.
# Biological target: T1, Ybr033w (UniProt P38073)
# T1 sequence: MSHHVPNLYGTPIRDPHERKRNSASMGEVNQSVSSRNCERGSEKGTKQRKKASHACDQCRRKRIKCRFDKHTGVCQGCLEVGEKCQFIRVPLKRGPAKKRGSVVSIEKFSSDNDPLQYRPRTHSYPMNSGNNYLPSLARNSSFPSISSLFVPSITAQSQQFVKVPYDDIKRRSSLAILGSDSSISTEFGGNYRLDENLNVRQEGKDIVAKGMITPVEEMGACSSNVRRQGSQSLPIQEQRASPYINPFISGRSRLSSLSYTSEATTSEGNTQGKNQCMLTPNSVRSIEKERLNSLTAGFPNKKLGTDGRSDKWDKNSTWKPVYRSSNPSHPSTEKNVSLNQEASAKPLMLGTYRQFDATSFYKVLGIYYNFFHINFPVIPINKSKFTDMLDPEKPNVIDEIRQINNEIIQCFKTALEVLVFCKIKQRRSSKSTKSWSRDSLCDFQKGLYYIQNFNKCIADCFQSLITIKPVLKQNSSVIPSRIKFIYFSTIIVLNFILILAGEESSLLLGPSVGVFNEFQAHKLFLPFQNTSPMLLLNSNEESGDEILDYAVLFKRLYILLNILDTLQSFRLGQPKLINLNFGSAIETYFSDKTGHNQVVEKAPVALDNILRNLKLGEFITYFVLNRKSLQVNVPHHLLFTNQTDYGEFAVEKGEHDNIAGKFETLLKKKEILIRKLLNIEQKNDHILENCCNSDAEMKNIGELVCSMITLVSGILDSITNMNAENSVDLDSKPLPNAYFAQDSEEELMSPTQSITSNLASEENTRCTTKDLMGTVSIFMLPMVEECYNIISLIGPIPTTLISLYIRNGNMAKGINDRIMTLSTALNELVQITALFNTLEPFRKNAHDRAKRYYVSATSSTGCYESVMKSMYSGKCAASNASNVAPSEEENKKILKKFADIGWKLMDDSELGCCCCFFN
# Assay: PBM E-score (8-mer binding enrichment) (E-score (-0.5 to 0.5)); higher = stronger / more preferred TF binding; most listed sequences are background and not binding sites
# Details: protein concentration: 200 nM; construct: GST-full length
# Protocol: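 Universal 'all 10-mer' protein binding microarrays (Agilent AMADID 015681) probed with GST-tagged S. cerevisiae TFs (full-length or DBD) made by in vitro transcription/translation (PURExpress), about 100-200 nM. Bound TF was detected with fluorescent anti-GST. Each ungapped 8-mer (which stands for itself and its reverse complement) is scored by the PBM enrichment score (E-score), a modified Wilcoxon-Mann-Whitney statistic from -0.5 to +0.5, computed with the Universal PBM Analysis Suite. Scale: above 0.35 generally sequence-specific binding.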
row,Sequence,PBM E-score
1,ACGCAGCG,-0.207
2,CAGCCCGA,-0.0945
3,GAGCAGCC,-0.319
4,GTATGTCA,0.191
5,AGCCGTAA,0.0522
6,GCGCACCA,0.104
7,CCTGCTAA,-0.127
8,TCTAAACA,0.0786
9,AGCGGTGA,-0.159
10,AGTAATAA,0.18
11,ACTAAGAG,-0.148
12,CGCATGCA,-0.0641
13,AGGCCGTA,0.0121
14,GAAATGCC,0.0374
15,AGAAAGAC,-0.0153
16,CAGAACAG,0.104
17,GATTTCGA,-0.0493
18,CCCGGGAG,-0.0399
19,AATAGTGC,0.123
20,CAGTACAC,0.0183
21,CTACATCC,-0.0766
22,CATAAGTC,-0.0198
23,CCCCAACC,-0.145
24,GGACGTCC,-0.0997

row,Sequence,PBM E-score
1,TCCCTGCA,-0.00716
2,GACGTGCC,-0.225
3,GTTGAGAA,0.145
4,ATTAACGG,0.159
5,ATGGCCTA,-0.0527
6,AGGGGGTC,-0.351
7,GACCAATC,-0.0934
8,GTGTCAGA,0.0247
9,ACTGCTCT,-0.0433
10,GTACTGCA,-0.0582
11,AACTCGTC,0.122
12,ACTTCTCG,0.153
13,AAGACTGT,-0.21
14,AAGTTGAG,0.0874
15,GGATTCGA,-0.0863
16,ACGAAACC,0.0619
17,CAGGTCGA,0.141
18,GCACCGAA,0.0459
19,AATTCGAG,0.0369
20,AGAAAAAA,0.207
21,ATCCTTGG,0.117
22,CCATTTAA,0.226
23,CACTCAGC,-0.0478
24,AAAGCGAA,0.0358

row,Sequence,PBM E-score
1,ATCCATTC,0.143
2,CAGGGTTC,-0.231
3,CATTGGGG,-0.146
4,AGTCTAGG,-0.126
5,AGGGGCAA,-0.304
6,AGTGTTGA,0.197
7,AAGTGATG,0.0148
8,TATTTAAA,0.301
9,GTAAGACA,0.0549
10,AGTTCCAA,0.0213
11,AATTGCAC,-0.0897
12,CGTACTGC,-0.151
13,GGTATTAC,0.132
14,GGGACCGA,-0.148
15,AAACAAGG,-0.0653
16,AATACCCA,0.104
17,CAGTACCG,-0.274
18,TAAGCAAA,0.179
19,GTTTGAGA,0.034
20,GCAACGGA,0.0218
21,CTGTCTAC,0.0329
22,GACGTTTA,-0.0502
23,GAAAAATC,0.381
24,AGGATGTA,0.0979

row,Sequence,PBM E-score
1,ACTGGCCG,-0.321
2,CGTAGAAC,-0.059
3,ATAGAAGC,0.12
4,ACAATCTC,0.0789
5,AACTCACC,-0.0571
6,AGCGGTAG,-0.212
7,CAGGGGGC,-0.357
8,GCCCGCGA,-0.233
9,ACCTGTAT,-0.065
10,AAAATCGG,-0.0385
11,GTCCTGGA,-0.196
12,GACGATGA,-0.00274
13,CCGCGTTC,0.0353
14,CGCGATGC,-0.29
15,AGTTCCCA,-0.0242
16,ACAGGTGA,0.0969
17,AGGGTCCG,-0.273
18,CATATCGG,0.0616
19,CTTCTCCA,-0.214
20,CAAATATA,0.281
21,TGTGTCAA,0.0461
22,CAGGACGC,-0.122
